Measurements: the supplement of paper PMC3334620
In all, about 33,000 sequences were measured (“E-score (-0.5 to 0.5)”: median about -0.011, highest 2% from about 0.28 on). The list shows a part of the results.

target: T1, Gcr1 (UniProt P07261); experiment: PBM E-score (8-mer binding enrichment) (E-score (-0.5 to 0.5)); higher = stronger / more preferred TF binding; most listed sequences are background and not binding sites; conditions: protein concentration: 100 nM; construct: GST-full length
T1 sequence: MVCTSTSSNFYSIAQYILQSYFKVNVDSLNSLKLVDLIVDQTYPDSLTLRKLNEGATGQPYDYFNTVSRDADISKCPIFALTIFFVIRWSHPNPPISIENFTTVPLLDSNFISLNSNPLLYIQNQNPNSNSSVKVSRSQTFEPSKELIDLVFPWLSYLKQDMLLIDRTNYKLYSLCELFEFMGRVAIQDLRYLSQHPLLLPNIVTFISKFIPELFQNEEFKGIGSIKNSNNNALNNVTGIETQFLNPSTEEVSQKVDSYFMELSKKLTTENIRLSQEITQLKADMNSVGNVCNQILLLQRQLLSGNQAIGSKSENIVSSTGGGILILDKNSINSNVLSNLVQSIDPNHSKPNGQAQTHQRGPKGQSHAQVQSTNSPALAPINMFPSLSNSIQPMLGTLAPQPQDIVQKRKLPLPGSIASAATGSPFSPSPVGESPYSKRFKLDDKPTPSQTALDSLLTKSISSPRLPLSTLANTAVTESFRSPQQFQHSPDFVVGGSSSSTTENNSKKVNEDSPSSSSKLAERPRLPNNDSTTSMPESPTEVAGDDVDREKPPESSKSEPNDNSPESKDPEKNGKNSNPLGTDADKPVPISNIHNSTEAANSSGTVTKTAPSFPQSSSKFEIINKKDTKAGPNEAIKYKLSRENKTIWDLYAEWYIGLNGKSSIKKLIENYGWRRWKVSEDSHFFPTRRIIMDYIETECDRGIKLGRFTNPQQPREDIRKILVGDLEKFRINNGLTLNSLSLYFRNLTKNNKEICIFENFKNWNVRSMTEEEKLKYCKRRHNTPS
Experimental: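 Universal 'all 10-mer' protein binding microarrays (Agilent AMADID 015681) probed with GST-tagged S. cerevisiae TFs (full-length or DBD) made by in vitro transcription/translation (PURExpress), about 100-200 nM. Bound TF was detected with fluorescent anti-GST. Each ungapped 8-mer (which stands for itself and its reverse complement) is scored by the PBM enrichment score (E-score), a modified Wilcoxon-Mann-Whitney statistic from -0.5 to +0.5, computed with the Universal PBM Analysis Suite. Scale: above 0.35 generally sequence-specific binding.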

Sequence | PBM E-score
CCACATTA | 0.212
ACGGAGGA | -0.198
AACGACGG | -0.118
CCCGCCCA | 0.241
ACCCCGCC | 0.0633
ACCAACAG | 0.0747
CAGCTCAC | -0.114
CTTTGTCC | -0.0282
CAATCTGA | 0.00236
ACCAGGAA | 0.0492
ACACCCCT | 0.0254
ACTAGCCT | -0.176
AACCTGGT | 0.0343
ACCTTCGT | -0.0684
CTCTTTCA | -0.126
CGTCAGAA | -0.0764
GAGTCGGC | -0.0641
AGGGTGTG | -0.0625
GGCAGACC | -0.296
GCGTACCA | -0.136
AGTGGCGC | 0.267
GGCTAGGA | -0.112
GTTCGGAA | 0.0493
TCAGCACA | -0.113
ACGGATGA | -0.12

Sequence | PBM E-score
ATCCAGAT | 0.196
ACGTTAGT | -0.123
CCCCTTCA | -0.13
CTCCATGC | -0.192
AATCCGCC | -0.0285
AAATGCTT | -0.208
CCGATCGG | 0.107
GGCAGCAC | -0.0566
CTTGGAAC | 0.0986
CACAACTG | 0.127
AAATAGCC | -0.0925
CAGATCCG | -0.148
CAGCACCA | 0.277
TAGGCTCA | -0.262
CGGAGCGC | 0.099
GTTCTGAA | -0.14
GAACAAGA | 0.133
GCGGCGCA | -0.064
ATTGGTGC | 0.141
CTATACAA | 0.0862
TAATAATA | 0.147
CGATGTTC | -0.0449
GGTCCGGA | -0.101
CCAGAACA | -0.0128
AAAACTAG | 0.0364

Sequence | PBM E-score
GCAAAGCC | -0.173
ATCGTTTC | -0.0918
GAGGAGCA | -0.19
TCTTGACA | -0.113
ACTAAGTG | -0.0454
CGGTCTAA | -0.123
CGGGCGTA | -0.097
CCTGCACC | -0.0248
GAAGTATA | -0.189
GAGCATGA | -0.0995
GCGTTCTA | 0.0324
AAAGATGG | 0.0718
CATTATCC | 0.0765
CACGGTAC | -0.156
GTAGCGAA | -0.0593
CAATTATC | 0.109
CAGCGCCA | 0.0174
CGACACCA | 0.0926
CGCGTAAG | -0.185
ATTCGCCG | 0.11
ATATCTAG | 0.123
CTTCGTTA | -0.0392
CAGGTTAG | -0.0416
ATAAGTAT | 0.0878
CCGCTCCC | 0.0618

Sequence | PBM E-score
AGACTCAC | -0.173
ATTGAGGG | -0.0172
TCTTTAAA | -0.0381
AGGGTTTA | -0.142
GATGCCAA | 0.351
CGTGCTCA | 0.0706
CCACGACG | -0.243
GCGTACGA | -0.042
TAATAGGA | 0.278
CGTCTAGA | -0.0439
ACTTTATG | -0.175
CTCCCACC | 0.00127
GAGGCCGA | 0.0579
CGTCAGGC | -0.131
CCTATCGA | 0.122
AATTGTGC | -0.137
CGGCCGCC | 0.11
ACATGTTC | -0.0802
GCCAGTAA | 0.254
ACAATAGA | 0.0995
ATTGGGGG | 0.092
AGCCGTAG | -0.154
CCATTGTC | -0.121
AAGTGCGG | 0.0932
AAACATAG | -0.0739

Sequence | PBM E-score
ACTTCTAG | -0.0229
GGCCGGCA | -0.00082
TGACCACA | -0.113
CGATAGAG | -0.0218
CGCACTCA | -0.258
ATTCCAAA | 0.307
GGCGCAGA | 0.0458
CTACAACC | 0.0248
ACATATGG | 0.109
CTCGCTTC | 0.0436
ACGGTAGC | 0.00681
GGCCGGAA | -0.00514
CACAATAG | 0.0887
TAGCATAA | -0.106
CAAACGTG | 0.0744
AACGTCGA | 0.0497
AAATCTTG | 0.0316
TAGGACTA | -0.152
CAGCTCTC | -0.09
CAGCAGTA | -0.21
GCATTACC | -0.107
GACCGTAA | -0.0341
AGACGGAC | -0.22
AAGACGGG | 0.16
AATTACGT | -0.235

Sequence | PBM E-score
ATGTGATA | -0.0572
ACGAGCGC | -0.0852
AATTTGGC | 0.0642
GAACGCCC | -0.0877
ACTGGAAG | 0.463
GCCTAAGC | -0.167
ATCCCCCA | -0.0404
ATGCTTGC | -0.302
ACATTACG | 0.091
CCCCACAA | 0.305
CGCCTCTA | 0.228
CCGACAGA | -0.0124
CGAAGCTA | 0.198
GCAACAAA | 0.00754
CTTTGGGA | 0.13
AGGATCCT | 0.301
CTGTACAG | -0.0384
GGAATACA | -0.00837
ACCAAGAG | -0.134
ACGTTCCT | -0.0486
CTAACAAG | 0.129
ATCGGGGA | -0.0517
AGCGGATA | 0.0701
CGGCTCTC | -0.134
GAGCTCAA | -0.17

Sequence | PBM E-score
CGGCGCCC | 0.359
AGAGTGAA | 0.0212
GGCTAGAA | -0.0827
ACGCCCCT | -0.19
AGAGGCGC | 0.279
ACGACCAC | 0.0266
GCGGCTCA | 0.19
CGTTATAG | -0.142
ATGTGGTG | 0.0573
AAACCGAT | -0.0704
CAGCGGCC | 0.166
AACCCCCA | -0.138
CATTTCTC | 0.111
TGAGAAAA | 0.0932
GCACTGCC | -0.0612
GAGGTTCA | -0.16
TACCCGAA | 0.0359
CGCACCTA | 0.0792
ACATATCG | -0.0943
CGTACTTC | 0.00512
ATAGGCAG | 0.227
ACAACAGA | -0.18
